Assay results reported in PMC4336329 (PLoS ONE, 2015).
Out of some 310,000 compounds screened, about 14,000 (4.5%) showed an effect of 50% or more. The effect is printed as a negative number. This is one part of the list.

Molecular target: human ether-à-go-go-related gene (hERG) potassium channel (human, UniProt Q12809)
Experiment: primary screen, population patch clamp on CHO cells stably expressing hERG
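Also: peak tail current of the secondary pulse compared with the same well before compound.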

human ether-à-go-go-related gene (hERG) potassium channel, sequence (Q12809 whole entry, looked up): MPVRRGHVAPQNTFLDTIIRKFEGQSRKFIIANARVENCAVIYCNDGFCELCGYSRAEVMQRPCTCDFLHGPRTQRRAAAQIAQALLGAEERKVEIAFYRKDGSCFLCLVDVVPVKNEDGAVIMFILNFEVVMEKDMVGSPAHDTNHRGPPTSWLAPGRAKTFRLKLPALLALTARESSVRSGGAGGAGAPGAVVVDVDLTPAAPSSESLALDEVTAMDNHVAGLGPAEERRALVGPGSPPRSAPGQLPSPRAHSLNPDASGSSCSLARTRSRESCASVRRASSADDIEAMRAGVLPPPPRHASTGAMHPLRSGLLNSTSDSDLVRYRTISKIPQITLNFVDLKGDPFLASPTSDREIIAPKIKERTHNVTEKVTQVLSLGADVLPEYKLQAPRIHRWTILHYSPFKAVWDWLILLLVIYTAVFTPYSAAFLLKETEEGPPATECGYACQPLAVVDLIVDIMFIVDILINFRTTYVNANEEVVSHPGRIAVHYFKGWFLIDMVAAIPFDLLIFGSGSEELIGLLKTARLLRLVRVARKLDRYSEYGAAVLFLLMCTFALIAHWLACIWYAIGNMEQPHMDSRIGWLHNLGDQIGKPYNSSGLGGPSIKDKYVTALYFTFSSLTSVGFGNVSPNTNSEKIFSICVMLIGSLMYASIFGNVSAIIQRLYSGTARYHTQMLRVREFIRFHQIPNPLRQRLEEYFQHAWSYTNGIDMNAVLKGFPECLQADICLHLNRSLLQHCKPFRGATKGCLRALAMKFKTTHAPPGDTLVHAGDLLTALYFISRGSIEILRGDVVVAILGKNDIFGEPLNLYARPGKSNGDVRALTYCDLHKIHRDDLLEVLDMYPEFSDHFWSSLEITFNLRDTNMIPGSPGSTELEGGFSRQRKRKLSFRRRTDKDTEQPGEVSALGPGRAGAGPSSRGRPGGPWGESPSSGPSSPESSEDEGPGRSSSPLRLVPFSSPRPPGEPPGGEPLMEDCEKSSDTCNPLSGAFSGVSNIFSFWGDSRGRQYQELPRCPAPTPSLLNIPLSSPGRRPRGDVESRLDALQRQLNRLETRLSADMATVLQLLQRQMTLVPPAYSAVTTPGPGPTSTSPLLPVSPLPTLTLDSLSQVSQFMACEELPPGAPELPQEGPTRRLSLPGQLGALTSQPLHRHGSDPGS

Row | SMILES | hERG current change (%, negative = inhibition) at 10uM
1 | Cc1ccccc1NS(=O)(=O)c1ccc(N2CCCC2=O)cc1 | 1.61%
2 | O=C(c1ccc(OC2CCN(CCCc3ccccc3)CC2)cc1)N1CCCC1 | -69.8%
3 | O=C(CCSc1ccccc1)NCCN1CCOCC1 | -1.84%
4 | CC(C)NC(=O)CN(CCc1ccccc1)S(C)(=O)=O | 10.8%
5 | O=C(COC(=O)c1ccc(F)c(S(=O)(=O)N2CCOCC2)c1)c1ccc(Cl)cc1 | -31.1%
6 | COc1cc2nc(C(C)(C)C)oc(=O)c2cc1OC | 10.6%
7 | CC1CCc2c(C(=O)NCc3cccnc3)csc2C1 (stereo not shown) | -25.7%
8 | COc1ccccc1N1CCN(Cc2c(F)cccc2Cl)CC1 | -3.52%
9 | O=C(O)CSc1cc(C(F)(F)F)nc(-c2ccccn2)n1 | 5.55%
10 | Clc1ccccc1-c1ncc(-c2ccccc2)o1 | -7.26%
11 | Cn1c(=O)[nH]c(=O)c2c1nc(SCC(O)CO)n2Cc1ccccc1Cl (stereo not shown) | -2.7%
12 | O=C(Nc1ccccc1)c1cccnc1N1CCOCC1 | 19.4%
13 | O=C(COc1ncnc2cc(Cl)ccc12)c1ccc2c(c1)OCCO2 | 18.1%
14 | S=C(NCc1ccco1)N1CCN(C(c2ccccc2)c2ccccc2)CC1 | 0.301%
15 | O=C(COC(=O)C1CCN(/C=C/C(=O)C(F)(F)F)CC1)Nc1ccccc1 | -9.73%
16 | Cc1onc(-c2ccccc2)c1C1=N/C(=C\c2ccccc2F)C(=O)O1 | 27.6%
17 | O=C(Nc1ccon1)c1ccc(Cl)c(S(=O)(=O)N2CCCCC2)c1 | 19.3%
18 | CCOc1cc([C@H]2[C@@H]3CCCC[C@]3(O)CCN2CC(=O)NCc2ccco2)ccc1O | -3.22%
19 | CCCCc1cc(=O)oc2cc(C)cc(OCC(=O)NCc3ccncc3)c12 | -84.1%
20 | CCC(C)(C)n1nnnc1C(c1ccc(F)cc1)N1CCC(C(N)=O)CC1.Cl (stereo not shown) | 19.7%
21 | CCCCN(Cc1ccccc1)C(=O)CCN1C(=O)C2C3C=CC(C3)C2C1=O (stereo not shown) | 1.48%
22 | O=C(Nc1ccncc1)c1ccc(NS(=O)(=O)c2ccc3[nH]c(=O)[nH]c3c2)cc1 | 40%

Row | SMILES | hERG current change (%, negative = inhibition) at 10uM
23 | Cc1ccc(S(=O)(=O)NCC2CCC(C(=O)O)CC2)cc1 (stereo not shown) | -5.39%
24 | Cc1ccc(C(=O)c2ccc(N3CCOCC3)c(F)c2)cc1 | -22%
25 | O=C1OC(OC2CCCCC2)(c2ccccc2)c2ccccc21 (stereo not shown) | -10.4%
26 | CCS(=O)(=O)c1ncc(Cl)c(C(=O)Nc2ccc(C)cc2)n1 | 15%
27 | Cc1ccc(-c2cc(C(=O)N/N=C/c3ccc(F)cc3)n[nH]2)o1 | 4.98%
28 | Cn1c(=O)c2c(O)c(C=Nc3ccc(F)cc3)c(=O)n(C)c2n(C)c1=O | 5.63%
29 | C[C@H](NC(=O)c1nc[nH]c1C(=O)N[C@@H](C)C(=O)OC(C)(C)C)C(=O)OCc1ccccc1 | -20.4%
30 | Cc1nnc(NC(=O)Cn2cnc3c2c(=O)n(C)c(=O)n3C)s1 | 3.62%
31 | NS(=O)(=O)c1ccc(N/N=C/c2ccc3c(c2)OCO3)c([N+](=O)[O-])c1 | 2.79%
32 | COc1cc(C(=O)NC(=S)Nc2ccc(Cc3ccncc3)cc2)cc(OC)c1OC | -18.9%
33 | COc1ccc(C(=O)Oc2ccc3oc(=O)sc3c2)cc1 | -3.51%
34 | Cc1ccc(O)c(NC(=O)CCCC(=O)O)c1 | 5%
35 | CC1(C)N=C(N)N=C(N)N1c1ccc(F)cc1F.Cl | 6.69%
36 | COc1ccc2[nH]c(=O)c3c(c2c1)OC(C)(C)C=C3 | 6.92%
37 | Cc1ccc(S(=O)(=O)NCC(=O)Nc2ccc3c(c2)OCCO3)cc1 | 18.9%
38 | C=CCN(C(=O)CCC(=O)Nc1cc(C)on1)C(C(=O)NC(C)(C)C)c1ccc(OC)cc1 (stereo not shown) | -4.11%
39 | O=C(CN1CCCCCC1)Nc1c(Cl)cc(Cl)cc1Cl | -5.28%
40 | COc1ccccc1C1=NOC(C)(c2nnc(Cc3ccccc3)o2)C1 (stereo not shown) | 5.63%
41 | Cl.NC(=S)NC(c1ccccc1)c1ccncc1 (stereo not shown) | -9.63%
42 | COc1cccc(OC)c1-c1nn2c(-c3cc(-c4ccccc4)n[nH]3)nnc2s1 | 9.5%
43 | O=C(Cc1ccccc1)NNC1CC(=O)N(c2ccccc2)C1=O (stereo not shown) | 10.8%
44 | CCC(C)[C@H]1COCCS(=O)(=O)N1Cc1ccccc1F (stereo partly shown) | -18.5%

Row | SMILES | hERG current change (%, negative = inhibition) at 10uM
45 | Cc1cnc(NC(=O)c2ccc(F)c(S(=O)(=O)N3CCOCC3)c2)s1 | -46.4%
46 | Cc1cc(C(F)(F)F)nn1CC(=O)N(C)C1CCCCC1 | 22.7%
47 | O=S(=O)(c1ccc(NC(=S)N2CCN(c3ccccc3F)CC2)cc1)N1CCOCC1 | 21.1%
48 | Cc1cc(N)n(-c2ccc(S(=O)(=O)N3CCCC3)cc2[N+](=O)[O-])n1 | -3.48%
49 | CC(Oc1ccccc1)C(=O)Nc1ccc(C(N)=O)cc1 (stereo not shown) | -11.9%
50 | Nc1ccc2c(c1)CC(=O)c1ccccc1S2 | -2.93%
51 | CS(=O)(=O)N(CC(=O)NC1CCCCC1)c1cccc(Cl)c1 | -2.87%
52 | CN(C)S(=O)(=O)c1cccc(C(=O)NCCc2ccccc2)c1 | -8.76%
53 | Cc1ccc(N(C(=O)Cc2cccs2)C(C(=O)NCC2CCCO2)c2ccncc2)cc1 (stereo not shown) | 11.5%
54 | O=C(Nc1ccc(F)cc1)N(CCCN1CCOCC1)Cc1cc2cc3c(cc2[nH]c1=O)OCO3 | -49.3%
55 | COc1ccc(-c2nc(C)ncc2N=Nc2ccccc2)cc1 | 6.49%
56 | Cc1ccc(S(=O)(=O)C2(C(=O)NC3CCCC3)CC2)cc1 | -7.75%
57 | COc1cc2cc(CCCOC(=O)c3ccc(C#N)cc3)oc(=O)c2cc1OC | -65%
58 | Cc1ccc(S(=O)(=O)Nc2ccccc2F)cc1C(=O)NCc1ccco1 | 6.45%
59 | CN(C)c1nc(Cl)nc(N(C#N)CCOc2ccccc2)n1 | 7.92%
60 | Cc1noc(C)c1C(=O)NC(C)C1CCCO1 (stereo not shown) | 3.08%
61 | CN(C)C(=O)c1cn(-c2ccccc2)nc1-c1cc2ccccc2o1 | -10.3%
62 | Cc1cccc2sc(NC(=O)[C@@H]3CCCN3C(=O)c3cccs3)nc12 | 2.2%
63 | CC(C)Cn1c(N)c(C(=O)COC(=O)CCc2nc3ccccc3s2)c(=O)n(C)c1=O | -69.3%
64 | COCCN(Cc1cc2cccc(C)c2n2nnnc12)C(=O)C(F)(F)F | -8.44%
65 | CCOc1ccc(N2CC(C(=O)Nc3cc(Cl)ccc3-n3cncn3)CC2=O)cc1 (stereo not shown) | -64.2%
66 | O=C(COC(=O)CNC(=O)c1ccc(Cl)cc1Cl)Nc1cccc(S(=O)(=O)N2CCCC2)c1 | -16.7%

Row | SMILES | hERG current change (%, negative = inhibition) at 10uM
67 | COc1cccc(-c2nn(-c3ccccc3)cc2CN(C)Cc2c(C)nc3ccccn23)c1 | -59.9%
68 | O=C(CSc1nnc(-c2ccccc2)o1)NC1CCCC1 | -20.2%
69 | CC1CCCCC1NC(=O)c1nn(C)c(=O)c2ccccc12 (stereo not shown) | -11.8%
70 | CC(C)C(=O)Nc1cccc(C(=O)Nc2cc([N+](=O)[O-])ccc2F)c1 | 5.51%
71 | Cc1ccc(NC(=O)c2cccnc2C(=O)Nc2ccc(C)cc2)cc1 | 8.73%
72 | COc1ccccc1CCNC1CCCC(C)C1 (stereo not shown) | -11.9%
73 | COc1ccccc1OCC(O)CN1CCN(CC(=O)Nc2c(C)cccc2C)CC1 (stereo not shown) | -18.6%
74 | O=C1CSC(c2ccccc2)N1CC(O)c1ccc([N+](=O)[O-])cc1 (stereo not shown) | -12.1%
75 | COc1cccc(C2CC(c3ccccc3)n3ncnc3N2)c1 (stereo not shown) | -19.7%
76 | Cc1nn(CC(=O)N2CCN(c3ccccn3)CC2)c(=O)c2cc3sccc3n12 | 18.7%
77 | O=C(COC(=O)c1cccnc1Cl)Nc1ccccc1OC(F)F | -11.3%
78 | Cc1ccccc1NC(=O)N1CCC(NC(=O)C2CCCCC2)CC1 | 11.6%
79 | CCOc1ccc(-n2c(-c3ccc(Cl)cc3)c[n+]3c2SCC3)cc1.[Br-] | -80.9%
80 | COc1ccc(C(=O)Nc2ccc(N3CCCC3)cc2)cc1 | -3.35%
81 | CC(C)c1nnc(NC(=O)COc2ccc3ccccc3c2)s1 | -17%
82 | CCN(Cc1ccncc1)C(=O)c1cc(COc2ccc(F)cc2Cl)on1 | -44%
83 | Fc1ccccc1N1CCN(c2nc(-c3cccs3)nc3ccccc23)CC1 | 8.57%
84 | C#CCOCCOCCOCCNc1nc(N2CCN(C(=O)[C@H](CCCC[NH3+])n3cc(CCCC)nn3)CC2)nc(N2CCN(C(=O)[C@H](Cc3ccc(O)cc3)n3cc(CCO)nn3)CC2)n1.[Cl-] | 3.29%
85 | O=C(CN1C(=O)C2(OCCCO2)c2ccccc21)NCc1ccccc1 | 1.57%
86 | O=C(NCCO)C(=O)c1c(-c2ccccc2)cc2ccccn12 | -11.9%
87 | Cc1ccc(N=c2oc3cc(O)ccc3cc2C(N)=O)cc1 | -15%
88 | Nc1c(C(=O)c2cccs2)sc2nsc(SCCN3CCCCC3)c12 | 14.4%
